{"source": "PubChem BioAssay AID504332", "about": "(National Center for Advancing Translational Sciences (NCATS), 2011)", "note": "In all, about 350,000 compounds went through this assay and about 31,000 (8.9%) were called active. This list was built around the results that the source calls inconclusive (neither active nor inactive); the mix of calls is not that of the screen. Calls follow the shape of the dose curve; as a rule, active = well fitted inhibition curve with a large enough effect; inconclusive = small, poorly fitted or top-dose-only effect; inactive = no such curve, though single readings can be large or run the other way. Potencies of inconclusive entries are doubtful fits and often do not repeat. % is scaled to controls: 0 for no effect and ±100 for the full control effect; potency is read from the fitted curve at half-maximal effect; tags tell the direction and shape of the fitted curve."}
{"target": "Histone-lysine N-methyltransferase EHMT2 (Homo sapiens) (UniProt Q96KQ7)", "sequence (Q96KQ7 whole entry, looked up)": "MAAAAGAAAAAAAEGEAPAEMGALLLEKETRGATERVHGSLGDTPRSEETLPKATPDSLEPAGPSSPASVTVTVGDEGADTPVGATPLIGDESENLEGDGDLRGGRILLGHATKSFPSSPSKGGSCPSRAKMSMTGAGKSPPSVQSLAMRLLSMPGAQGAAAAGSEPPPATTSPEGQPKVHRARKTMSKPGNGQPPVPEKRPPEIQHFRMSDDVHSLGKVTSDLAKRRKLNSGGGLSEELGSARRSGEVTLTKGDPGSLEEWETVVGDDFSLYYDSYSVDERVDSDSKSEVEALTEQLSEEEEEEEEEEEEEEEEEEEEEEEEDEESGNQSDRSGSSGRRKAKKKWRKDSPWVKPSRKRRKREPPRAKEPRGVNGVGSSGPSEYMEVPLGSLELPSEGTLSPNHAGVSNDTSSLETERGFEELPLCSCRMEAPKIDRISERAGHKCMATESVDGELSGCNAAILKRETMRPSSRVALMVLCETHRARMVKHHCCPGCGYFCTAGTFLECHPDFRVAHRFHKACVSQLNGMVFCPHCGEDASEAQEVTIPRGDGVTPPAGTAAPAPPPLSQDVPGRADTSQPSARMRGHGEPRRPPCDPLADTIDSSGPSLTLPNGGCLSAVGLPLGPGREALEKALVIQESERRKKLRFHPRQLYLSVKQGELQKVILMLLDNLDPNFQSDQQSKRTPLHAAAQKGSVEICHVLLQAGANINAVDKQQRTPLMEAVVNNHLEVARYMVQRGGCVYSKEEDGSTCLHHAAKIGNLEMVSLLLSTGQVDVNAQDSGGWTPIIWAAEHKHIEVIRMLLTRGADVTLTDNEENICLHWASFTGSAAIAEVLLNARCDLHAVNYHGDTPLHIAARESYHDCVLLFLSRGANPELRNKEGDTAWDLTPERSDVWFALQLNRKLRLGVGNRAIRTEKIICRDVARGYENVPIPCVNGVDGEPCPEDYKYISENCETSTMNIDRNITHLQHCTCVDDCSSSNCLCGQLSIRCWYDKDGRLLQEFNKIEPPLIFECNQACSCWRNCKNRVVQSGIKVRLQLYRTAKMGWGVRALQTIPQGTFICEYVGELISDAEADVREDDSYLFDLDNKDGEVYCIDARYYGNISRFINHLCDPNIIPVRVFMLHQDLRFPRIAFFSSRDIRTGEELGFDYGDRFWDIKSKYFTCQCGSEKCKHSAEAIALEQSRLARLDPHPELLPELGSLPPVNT", "experiment": "qHTS Assay for Inhibitors of Histone Lysine Methyltransferase G9a; also: nearly all actives have a fitted effect of over 75% in size", "settings": "G9a H3K9 monomethylation, AlphaScreen, 2 h; activity, negative = inhibition: at 59 µM (top of the series) unless noted", "how_it_was_run": "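Chemiluminescent proximity detection of H3K9 monomethylation, read after 10 min bead incubation in the dark. Reaction: 20 nM G9a, 500 nM biotin-H3K9 peptide, 20 uM SAM cofactor, 2 h, room temperature, following 15 min enzyme-compound preincubation.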"}
{"smiles": "Cc1cc(C)c(NC(=O)/C=C\\C(=O)O)c(Cl)c1", "Potency": "inconclusive: 31.6 µM [inhibitor, single point]"}
{"smiles": "O=C(CCc1ccccc1)NC(c1cccs1)c1cc(Cl)c2cccnc2c1O", "note": "(stereo unspecified)", "Potency": "inconclusive: 0.398 µM [inhibitor, partial curve, poor fit]"}
{"smiles": "O=[N+]([O-])c1ccc(/C=N/n2cnc3ccccc32)s1", "Potency": "inactive"}
{"smiles": "Cn1ccnc1C(=O)c1cc(SCC(=O)NCc2ccccc2)nc2ccccc12", "Potency": "inconclusive: 10 µM [inhibitor, full curve, poor fit]"}
{"smiles": "O=C(CCC(=O)c1ccccc1)NC1CCCN(Cc2ccccc2F)C1", "note": "(stereo unspecified)", "Potency": "inactive"}
{"smiles": "Cc1cc(Nc2ccc3c(c2)OCCO3)c2cccc(C)c2n1", "Potency": "inconclusive: 100 µM [inhibitor, single point]"}
{"smiles": "O=C(CCCOc1ccc(Cl)cc1Cl)N/N=C/c1ccccc1", "Potency": "inconclusive: 28.2 µM [inhibitor, partial curve, poor fit]"}
{"smiles": "COC(=O)c1ccc(NC(=O)CN2C(=O)CNC2=O)cc1", "Potency": "active: 12.6 µM"}
{"smiles": "O=C(COc1cccc2c1CCN(Cc1ccccc1)C2=O)NCc1ccco1", "Potency": "inconclusive: 89.1 µM [inhibitor, single point]"}
{"smiles": "CC(=O)c1cccc(CN2CCC(CO)(Cc3ccccc3)CC2)c1", "Potency": "inconclusive: 79.4 µM [inhibitor, partial curve, poor fit]"}
{"smiles": "Clc1ccc(-c2nc3n(n2)Cc2ccccc2-3)cc1", "Potency": "inconclusive: 11.2 µM [inhibitor, partial curve, poor fit]"}
{"smiles": "Cc1ccc2nc(/N=C(\\N)NC(=O)NC3CCCCC3)nc(C)c2c1", "Potency": "inactive"}
{"smiles": "N=c1c(S(=O)(=O)c2ccc(Cl)cc2)cc2c(=O)n3ccccc3nc2n1C1CCCC1", "Potency": "inactive"}
{"smiles": "COc1ccc(/C=C/C(=O)O)cc1S(=O)(=O)N1CCCC1", "Potency": "inconclusive: 31.6 µM [inhibitor, partial curve, poor fit]"}
{"smiles": "CSc1ccccc1OCc1cc(C(=O)NCCN2CCCc3ccccc32)no1", "Potency": "inconclusive: 79.4 µM [inhibitor, partial curve, poor fit]"}
{"smiles": "Cc1cc2nc(-c3ccc(SCc4ccc(C(=O)O)cc4)nc3)[nH]c2cc1C", "Potency": "active: 31.6 µM"}
{"smiles": "CCS(=O)(=O)c1c(Nc2cc(C)ccc2C)sc(C(=O)c2ccccc2)c1N", "Potency": "inconclusive: 14.1 µM [inhibitor, partial curve, poor fit]"}
{"smiles": "CC1CN(C(=S)SCC(=O)c2ccc(Cl)cc2)CC(C)O1", "note": "(stereo unspecified)", "Potency": "inconclusive: 39.8 µM [inhibitor, single point]"}
{"smiles": "CCn1nc(NS(=O)(=O)c2ccc(NC(C)=O)cc2)c2cc3cc(C)ccc3nc21", "Potency": "inconclusive: 44.7 µM [inhibitor, partial curve]"}
{"smiles": "Cc1c(C(=O)N2CCCC2)c(S(=O)(=O)NCCc2ccccc2)c(C)n1C", "Potency": "inconclusive: 89.1 µM [inhibitor, single point]"}
{"smiles": "Cc1nn(CCC(=O)NNC(=S)Nc2ccccc2)c(C)c1Br", "Potency": "active: 12.6 µM"}
{"smiles": "COc1cc(C(=O)Nc2c(C(=O)O)[nH]c3ccc(C)cc23)cc(OC)c1OC", "Potency": "inconclusive: 70.8 µM [inhibitor, single point]"}
{"smiles": "COc1ccc(C2CC3(CC(C)(C)NC(SC)=N3)Oc3cc(O)cc(C)c32)cc1", "note": "(stereo unspecified)", "Potency": "inconclusive: 25.1 µM [inhibitor, partial curve, poor fit]"}
{"smiles": "CCN1CCN(S(=O)(=O)c2ccc(Cl)c(C(=O)Nc3cc(Cl)ccc3N3CCOCC3)c2)CC1", "Potency": "inconclusive: 20 µM [inhibitor, partial curve, poor fit]"}
{"smiles": "COc1ccc(C(=S)N(C)C)cc1OC", "Potency": "inconclusive: 6.31 µM [inhibitor, single point]"}
{"smiles": "CC(=O)N(C(C)=O)c1c(N2CCCC2)c2ccccc2oc1=O", "Potency": "inactive"}
{"smiles": "O=C(CN1C(=O)c2ccccc2S1(=O)=O)NCc1ccc2c(c1)OCO2", "Potency": "inconclusive: 22.4 µM [inhibitor, single point]"}
{"smiles": "Cc1cc(OCC(=O)N(Cc2ccc(N(C)C)cc2)C2CCS(=O)(=O)C2)cc(C)c1Cl", "note": "(stereo unspecified)", "Potency": "inconclusive: 17.8 µM [inhibitor, partial curve, poor fit]"}
{"smiles": "Cc1cc(C(=O)CSc2nc(N)cc(N)n2)c(C)n1-c1cccc(C(F)(F)F)c1", "Potency": "inconclusive: 39.8 µM [inhibitor, single point]"}
{"smiles": "O=C(c1cccs1)c1cn(CCOc2ccccc2Cl)c2ccccc12", "Potency": "inactive"}
{"smiles": "[O-]/[N+](=C\\c1ccc(OC(F)F)cc1)c1ccccc1", "Potency": "active: 50.1 µM"}
{"smiles": "COC(=O)CSc1nnc(-c2ccccc2OC)n1-c1ccc(C)cc1", "Potency": "inactive"}
{"smiles": "CNC(=S)N1CCN(c2nc(-c3cccc(OC)c3)cs2)CC1", "Potency": "inconclusive: 79.4 µM [inhibitor, single point]"}
{"smiles": "CCn1c(NC)cc(=O)n(C)c1=O", "Potency": "inconclusive: 3.16 µM [inhibitor, partial curve, poor fit]"}
{"smiles": "COc1ccccc1OCCC(=O)N1CCN(c2ccccc2OC)CC1", "Potency": "inconclusive: 1.12 µM [inhibitor, single point]"}
{"smiles": "CC1(C)CC(=O)CC2(C1)NCC(c1ccccc1Cl)c1c2[nH]c2ccccc12", "note": "(stereo unspecified)", "Potency": "inconclusive: 79.4 µM [inhibitor, single point]"}
{"smiles": "CN1CCc2c(sc(NC(=O)C3CCN(S(=O)(=O)c4cccs4)CC3)c2C(N)=O)C1", "Potency": "inconclusive: 50.1 µM [inhibitor, partial curve, poor fit]"}
{"smiles": "Cc1ccc(S(=O)(=O)N2CCN(C(=O)CN3C(=O)c4ccc([N+](=O)[O-])cc4C3=O)CC2)cc1C", "Potency": "inconclusive: 35.5 µM [inhibitor, single point]"}
{"smiles": "Cc1cc(=O)[nH]c(Nc2ccc(N(C)C)cc2)n1", "Potency": "inconclusive: 79.4 µM [inhibitor, single point]"}
{"smiles": "Cc1nnnn1/C(=C\\c1ccccc1)C(=O)OCC(=O)N(C)C1CCS(=O)(=O)C1", "note": "(stereo unspecified)", "Potency": "inconclusive: 79.4 µM [inhibitor, partial curve, poor fit]"}
{"smiles": "CN(C)[C@@H]1C(=O)C(C(=O)NCN2CCCC2)=C(O)[C@@]2(O)C(=O)C3=C(O)c4c(O)cccc4[C@@](C)(O)C3CC12", "note": "(stereo partly specified)", "Potency": "active: 3.16 µM"}
{"smiles": "COc1ccccc1NC(=O)CSc1nc(=O)n2cc(C)ccc2n1", "Potency": "inactive"}
{"smiles": "Cc1nc2ccccn2c1C(=O)NNS(=O)(=O)c1ccc(C(C)(C)C)cc1", "Potency": "inconclusive: 28.2 µM [inhibitor, single point]"}
{"smiles": "CCOc1ccccc1N=CC1=C(O)CC(c2ccccc2)CC1=O", "note": "(stereo unspecified)", "Potency": "inconclusive: 79.4 µM [inhibitor, partial curve, poor fit]"}
{"smiles": "COc1ccc(CCNC(=O)c2ccc(Cn3c(=O)c4ccccc4n(Cc4ccc(C)cc4)c3=O)cc2)cc1OC", "Potency": "inactive"}
{"smiles": "Cc1ccc2nc(CN3CCN(C(=O)Nc4ccc(C)c(F)c4)CC3)oc2c1", "activity, negative = inhibition": "inactive: 0.246% [at 12.7 µM]"}
{"smiles": "NC(=O)c1sc2nc(-c3cccs3)ccc2c1N", "Potency": "active: 35.5 µM"}
{"smiles": "CCOc1cc(S(=O)(=O)N2CC=C(c3ccc(F)cc3)CC2)c(OCC)cc1-n1cnnn1", "Potency": "inconclusive: 35.5 µM [inhibitor, partial curve, poor fit]"}
{"smiles": "COc1cc2cccc(OC)c(=O)c2c(O)c1OC", "Potency": "inconclusive: 1.41 µM [inhibitor, partial curve, poor fit]"}
{"smiles": "CCOc1ccc(CCNC(=O)c2ccc(-c3nc(COc4ccc(C)cc4)c(C)o3)cc2)cc1", "Potency": "inactive"}
{"smiles": "CCOC(=O)CSc1nnc(-c2ccco2)n1C", "Potency": "inactive"}
{"smiles": "COc1ccc2cc1Oc1ccc(cc1)CC1c3c(cc(OC)c4c3Oc3cc5c(cc3O4)CCNC5C2)CCN1C", "note": "(stereo unspecified)", "activity, negative = inhibition": "inconclusive: -79.5% [inhibitor]"}
{"smiles": "C#CCOCCOCCOCCNc1nc(N2CCN(C(=O)[C@H](CCC(=O)O)n3cc(C(N)CO)nn3)CC2)nc(N2CCN(C(=O)[C@H](CCCCN)n3cc(C(N)[C@H](C)CC)nn3)CC2)n1", "note": "(stereo partly specified)", "Potency": "inconclusive: 1.78 µM [inhibitor, partial curve, poor fit]"}
{"smiles": "COc1cc2nc(/C=C/c3ccc(N(C)C)cc3)sc2cc1SC", "Potency": "inconclusive: 28.2 µM [inhibitor, single point]"}
{"smiles": "CCC(C)(C)c1ccc(OCCCC[n+]2ccccc2)c(C(C)(C)CC)c1", "Potency": "inconclusive: 89.1 µM [inhibitor, single point]"}
{"smiles": "CC(c1n[nH]c(=S)n1-c1ccc(F)cc1)N1CCCCC1", "note": "(stereo unspecified)", "Potency": "active: 35.5 µM"}
{"smiles": "O=C(O)c1ccccc1C(=O)NNc1ccc(F)cc1F", "Potency": "active: 50.1 µM"}
{"smiles": "COC(=O)c1ccc(OC)c(Cn2c(=O)n(-c3cccc(Cl)c3)c(=O)c3c4c(sc32)CN(C(C)=O)CC4)c1", "Potency": "inactive"}
{"smiles": "Cc1ccccc1-c1ccc2ncnc(NCc3cccnc3)c2c1", "activity, negative = inhibition": "inactive: -8.01% [at 0.501 µM]"}
{"smiles": "COC(=O)c1ccc(NC(=O)CC2C(=O)N(c3ccc(C)cc3)C(=O)N2CC(C)C)cc1", "note": "(stereo unspecified)", "Potency": "inconclusive: 70.8 µM [inhibitor, single point]"}
{"smiles": "COc1ccc(-c2csc3ncnc(N4CCN(c5ccccc5)CC4)c23)cc1", "Potency": "active: 70.8 µM"}
{"smiles": "O=C(/C=C/c1ccc(Cl)c([N+](=O)[O-])c1)c1cccnc1", "Potency": "active: 39.8 µM"}
{"smiles": "Cc1ccc(C2C3CN(C(C)C)CC=C3C(C#N)=C(N)C2(C#N)C#N)cc1", "note": "(stereo unspecified)", "Potency": "inconclusive: 3.16 µM [inhibitor, partial curve, poor fit]"}
{"smiles": "Brc1ccc(-c2nn3c(-c4ccncc4)nnc3s2)o1", "Potency": "inconclusive: 89.1 µM [inhibitor, single point]"}
{"smiles": "CC(C(=O)NC1CCCc2ccccc21)N1C(=O)C2CCCCC2C1=O", "note": "(stereo unspecified)", "activity, negative = inhibition": "inactive: -2.04% [at 12.7 µM]"}
{"smiles": "CCc1ccc2c(c1)CCCN2C(=O)c1ccccc1C(=O)O", "Potency": "inconclusive: 2.82 µM [inhibitor, partial curve, poor fit]"}
